This is an account of results in the RNAGym collection of RNA variant scans (doi:10.1093/nar/gkz1192).

The source gives no read counts; variants with many changes may rest on few reads.

B1: CPEB3 Ribozyme (parent)
chain: UAACAGGGGGCCACAGCAGAAGCGUUCACGUCGCAGCCCCUGUCAGAUUCUGGUGAAUCUGCGAAUUCUGCUGUAUAUCUC

Variants of B1 are the subject of this series. As to the kind of experiment: self-cleavage, relative activity (ratio to wild type); higher = more cleavage; in vitro, sequencing. The method, boiled down: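 Relative activity was defined as the cleaved/total read fraction for a variant divided by the same fraction for the unmutated ribozyme. CPEB3 self-cleaving ribozyme libraries were made by rounds of error-prone PCR, barcoded, and transcribed in vitro with T7 RNA polymerase for 5 hours at 37°C, and cleavage ran through transcription plus a 15 min DNase I step before EDTA. Illumina sequencing of template-switched reverse transcripts gave the reads, and DNA sequencing mapped the barcodes. Averages come from three batches, using variants with at least 5 reads.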
As to UAACAGGGAGCCGUAGCAGGAGCGUUCACGUCGCAGCCCCCGUCAGAUCCUGGUAAAUCUGCGAAUUCUGCUGUAUAUCUC, the self-cleavage was 0.06.

In the case of UAACAGGUGGCCACAGCAGAAGCGUUCACGUCGCAGCCCCUGUCAGAUUCUGGUGAACCUGCGAAUUCCGCUGUAUAUCUC, the self-cleavage stood at 0.09.

UAACAGGGAGCCACGGCAGAAGCGUUCACGUCGCAGCCCCUGUCGGAUUCUGGUGAAUCUGCGAAUUCUGCGGUAUAUCUC: the self-cleavage worked out at 0.2.

For the variant UAACAGGGAGCCACAGCGGAUGCGUUCACGCCGCAGCCCCUGUCAGAUUCAGGUGAAUCUGCGAUUUCUGCUGUAUAUCUC, the self-cleavage was 0.04.

For UAACAGGGAGCCCCAGCAGAAGCGUUCACGACGCAGCCCCAGUCAGAUUCUGGUGUAUCUGCGAAUUCAGCUGUAUAUCUC, the self-cleavage is 0.21.

For UAACAGGGAGCCACAGCCGAAGCUUUCACGUCGCAGCCCCUGACAGACUCUGGCGAAUCUGCGAAUUCUGAUGUAUAUCUC, the self-cleavage turned out to be 0.04.

UAACAGGGAGCCUCAGCAGAAGCGUUCACUUCGCAGCCCCUAUCAGAUUCAGGUGAAUCUGCGAAUUCUGCUGUAUAUCCC: the self-cleavage amounted to 0.41.

Take UAACAGGGAGCCACAGCGGAAGCGGUCACGUCGCAGCCCUAGUCAGAUUCUGGUGAAUCUGCGAAUUCUGCUGUAUUUCUC: the self-cleavage was 0.13.

As to UAACAGGGAGCCACUGCAGAAGCGUUCACGUCGCAGCCCCCCUCAUAUUCUGGUGUAUCUGCGAAUUCUGCUGUAUAUCUC, the self-cleavage stood at 0.06.

As to UAACAGGGAGCCCCAGCAGAAGCGUUCACGUCGCAGCCCCAGUCAGAUUCUGGCGUAUCUGCGAAUUCUGCUGUAUAUCUC, the self-cleavage turned out to be 0.25.

For UAACAGGUGGCCACAGCAGAAGCGUUCACGUCGCAGCCCCUGCCAGAUUCUGGUGAAUCUGCGAAUUCAGCAGUAUAUCUC, the self-cleavage was 0.05.

On to UAACAGGGAGCCACUGCAGAAGCGUUCACGUCGCAGCCCCUAUCAGAUUCUGGUGAAUCUGCGAAUUCUGCUGUAUAUCUC, for which the self-cleavage worked out at 0.06.

As to UAACAGGGAGCCACAGCGGAAGCGUUCACGUCGCAGCCCCUGUCAGAUUCUGGUGAAUCUGCGGAUUCUGCUGUAUAUCUC, the self-cleavage was 0.1.

As for UAACAGGGAGCCACGGCAGAAGCGUUCACGUCGCAGCCUCUGUCGGAUUCUGGUGAAUCUGCGAAUUCUGCUGUAUAUCUC, the self-cleavage was 0.06.

Consider UAACAGGGAGCCUCAGCAGAAGCGUUCACGUCGCAGCCCCUGUCAGAUUCUGGUGAAUCUGCGAAUACUGCUGUAUACCUC, for which the self-cleavage was determined as 0.16.

Take UAACAGGGAGCCUCAGCGGAGGCGUUCGCGUCGCUGCCCCUGUCAGAUUCUGGUGAAUCUGCGAAUUCUGCUGCAUAUCUC: the self-cleavage came out at 0.04.

Take UAACAGGUGGCCACAGCAGAAGCGUUCACGUCGCAGCCCCUGACAGAUUCUGGUGAAUCUGCGGAUUCUGCCGUAUAUCUC: the self-cleavage stood at 0.04.

In the case of UAACAGGUGGCCACAGCAGAAGCGUUCACGUCGCAGCCCCUGCCAGAUUCUGGUGGAUCUGCGAUUUCUGCUGUAUAUCUC, the self-cleavage was determined as 0.05.

With UAACAGGGAGCCACAGCGGAAGCGUACACGUCGCAGCCCCUGUCAGAUUCUGGUGAAUCUGUGAAUUCUGCUGUAUAUCUC, the self-cleavage amounted to 0.04.

UAACAGGGAGCCCCAGCAGAAGAGUUCACGUCGCAGCCCCUGUCAGAUUCAGGUGAAUCUGCGAAUCCUGCUGUAUAUCUC: the self-cleavage was 0.07.

As for UAACAGGGAGCCACGGCAGAAGCGUUCACGUCGCAGCCCCUGUCGGACUCUGGUGAAUCUGCCAAUUCUGCAGUAUAUCUC, the self-cleavage worked out at 0.04.

As for UAACAGGUGGCCACAGCAGAAGCGUUCACGUCGCAGCCCCUGUCAGAUUCUGGCGAAUCUGCGAGUUCUGCUGUAUAUCUC, the self-cleavage stood at 0.06.

For the variant UAACAGGGAGCCUCAGCAGAAGCGUUCACGUCGCAGCCCCUGUCAGAUUCUGGUGAAUCUGCGAAUUCUGCUGUAUUUCUC, the self-cleavage was 0.14.

Regarding UAACAGGGAGCCUCAGCAGAAGCGUUCACGUCGCAGCCCCUGUCAGAUUCUGGUGGAUCUACGAAUUCUGCUGUAUACCUC, the self-cleavage was 0.06.

UAACAGGGAGCCGCAGCAGAAGCGUACACGUCGCAGCCCCUGUAAGAUUCUGGUGAAUCUGCGAAUUCUGCUGUAUAUCUC: the self-cleavage is 0.07.

Turning to UAACAGGGAGCCACGGCAGAAGCGUACUCGUCGCAGCCCCUGUCAGAUUCUGGUGAACCUGCGAAUUCUGCUGUAUAUCUC, the self-cleavage was 0.06.

Consider UAACAGGGAGCCGCAGCAGAGGCGUUCUCGUCGCAGCCCCUGUCAGAUUCUGGUGAAUCUGCGAAUUCUGCUGUAUAUCUC, for which the self-cleavage is 0.16.

On to UAACAGGGAGCCACCGCAGAAGCGUUCACGUUGCUGCCCCUGUCAGAUUCUGGUGAAACUGCGAAUCCUGCUGUAUAUCUC, for which the self-cleavage is 0.04.

Turning to UAACAGGGAGCCUCAGCAGAAGCGUUCACGUCACAGCCCCAGUCAGAUUCUGGUGAUUCUGCGAAUUCUGCUGUAUAUCUC, the self-cleavage came to 0.09.

Turning to UAACAGGUGGCCACAGCAGAAGCGUUCACGUCGCAGCCCCUGUCAGAUCCUGGUGAAUCUGCGAAUUCUGCAGUAUAUCUC, the self-cleavage came to 0.14.

For the variant UAACAGGUGGCCACAGCAGAAGCGUUCACGUCGCAGCCCCCGCCAGAUUCUGGAGAAUCUGCGAAUUCUGCUGUAUAUCUC, the self-cleavage was determined as 0.24.

In the case of UAACAGGGAGCCACUGCAGAAGCGUUCACGUCGCUGCCCCAGUCAGAUUCUGGUGAAUCUGCGAAUACUGCUGUAUAUCUC, the self-cleavage stood at 0.04.

Consider UAACAGGGAGCCACGGCAGGAGCGUUCACGUCGCAGCCCCUGCCAGAUUCCGGUGAGUCUGCGAAUUCAGCUGUAUAUCUC, for which the self-cleavage was determined as 0.15.

Consider UAACAGGGAGCCACUGCAGAAGCGUUCACGUCGCAGCCCCUGUCAGAUUCUGGUGAUUCUGCUAAUUCUGCUGUAUAACUC, for which the self-cleavage stood at 0.04.

For the variant UAACAGGGAGCCGCAGCAGAAGCGUUCACGUCGCAGCCCCUGUCAGACUCUGGUGAAUCUGCGAAUACUGCUGUAUAUCCC, the self-cleavage is 0.14.

Regarding UAACAGGGAGCCUCAGCAGUAGCGUUCACGACGCAGCCCCUGUCAGAUUCUGGCGGAUCUGCGAAUUCUGCGGUAUAUCUC, the self-cleavage amounted to 0.02.

On to UAACAGGGAGCCACAGCGGAAACGUUCACGUCGCAGCCCCUGUCAGAUUCUGGUGAAUCUGCGAAUUCUGCUGUAUAUCUC, for which the self-cleavage came to 0.33.

As for UAACAGGUGGCCACAGCAGAAGCGUUCACGUCGCAGCCCCUGUCAGAUCCAGGUGAGUCUGCGAAUUCAGCAGUAUAUCAC, the self-cleavage turned out to be 0.05.

Turning to UAACAGGUGGCCACAGCAGAAGCGUUCACGUCGCAGCCCCGGUCAGAUUCUGGUGAAUCUGCGAAUUCUGCAGUAUAUCUC, the self-cleavage was found to be 0.11.

On to UAACAGGUGGCCACAGCAGAAGCGUUCACGUCGCAGCCCCUGGCUGAUUCUGGUGAAUCUGCGAAUUCUGCUGUAUAUCUC, for which the self-cleavage turned out to be 0.04.

As to UAACAGGUGGCCACAGCAGAAGCGUUCACGUCGCAGCCCCUGACAGAUACUGGUGAAUCUGCGAAUUCUGCUGUAUAUCUC, the self-cleavage amounted to 0.08.

Take UAACAGGGAGCCGCAGCAGAAGCGUUCACGUCGCAGCCCCUGUCAGAUUCUGGUGAAUCUGUGAAUUCUGCUGUAUAUCUC: the self-cleavage came out at 0.12.

With UAACAGGUGGCCACAGCAGAAGCGUUCACGUCGCAGCCCCUGACAGUAUCUGGUGUAUCUGCGAAUUCUGCUGUAUAUCUC, the self-cleavage is 0.05.

Take UAACAGGGAGCCACUGCAGAGGCGUUCACGUCGCAGCCCCUGUCCGAUUCUGGCGAGUCUGCGAAUUCUGCUGUAUAUCAC: the self-cleavage was 0.14.

As for UAACAGGGAGCCGCAGCAGAAGCGUUCACGUCGCAGCCCCUGUCAGAUUCAGGUGAAUCUGCGAAUUCUGCAGUAUAUCUC, the self-cleavage amounted to 0.05.

With UAACAGGGAGCCUCAGCGGAAGCGUUCACGUCGCAGCCCCUGUCAGAUUCUGGUGAGUCUGCGAAUUCAGCUGUAUCUCUC, the self-cleavage came out at 0.05.

Take UAACAGGGAGCCUCACCAGAAGCGAUCACGUCGCAGCCCCUGUCAGAUCCUGGUGAAUCUGCGAAUUCUGCUGUAUAUCUC: the self-cleavage was found to be 0.05.

Turning to UAACAGGGAGCCACGGCAGAAGCGUUCACGUCGCGGCACCUGUCAGAUUCUGGUGAAUCUGCGAAUACUGCUGUAUAUCUC, the self-cleavage worked out at 0.08.

Consider UAACAGGGAGCCGCAGCAGAAACGUUCACGUCGCAGCCCCUGUCAGAUUCUGGUGAAUCUGCGAAUUCUGCUGUAUAUCUC, for which the self-cleavage was 0.3.

UAACAGGGAGCCGUAGCAGGAGCGUUCACGUCGCAGCCCCCGUCAGAUUCUGGUGAGUCUGCGAAUUCUGCUGUAUAUCUC: the self-cleavage is 0.2.

On to UAACAGGGAGCCACGGCAGAAGCGUUCACGUCUCAGCCCCUGUCAGAUUCUGGUGAAUCUGCGGAUUCUGCAGUAUAUCUC, for which the self-cleavage was 0.05.

Turning to UAACAGGUGGCCACAGCAGAAGCGUUCACGUCGCAGCCCCUGUCAGAUUCUGGUGAAUCUGCGAAUCCUGCUGUACAUCUC, the self-cleavage came to 0.3.

Take UAACAGGGAGCCACGGCAAAAGCGUUCACGUCGCAGCCCCUGUCAGAUUCUGGUGGAUCUGCGAAUUCUGCUGUAUAUCUC: the self-cleavage was determined as 0.06.

Consider UAACAGGUGGCCACAGCAGAAGCGUUCACGUCGCAGCCCCUGACAGGUUCUGGUGAAUCUGCGAAUUCUGCUGUAUAUCUC, for which the self-cleavage is 0.43.

For the variant UAACAGGUGGCCACAGCAGAAGCGUUCACGUCGCAGCCCCUGUCAGAUUCUGGUGAAUCUGCGAAUCCUGCUGCAUAUCUC, the self-cleavage was found to be 0.1.

For the variant UAACAGGGAGCCACUGCAGAAGCGUUCGCGUCGCAGCCCCUGCCGGAUUCUGGUGGAUCUGCGAAUUCUGCUGUAUAUCUC, the self-cleavage turned out to be 0.21.

With UAACAGGUGGCCACAGCAGAAGCGUUCACGUCGCAGCCCCUGACAGAUUCUGGUGAAUCUGCGAAUUCCGCUGUACAUCUC, the self-cleavage amounted to 0.14.

As for UAACAGGGAGCCACAGCGGAAGCGUCCACGUCGCAGCCCCUGUCAGAUUCUGGUGAAUCUGCGAAUUCUGCUGUAUAUCUC, the self-cleavage is 0.22.

For UAACAGGGAGCCACUGCAGAAGCGUUCGCGUCGCAGCCCCUGUCAGAUUCUGGUGAAUCUGCGAAUCCAGCUGUAUACCUC, the self-cleavage is 0.04.

UAACAGGGAGCCACGGCAGAAGCGUUCACGUCACAGCCCCUGUCCGAUUCUGGUGAAUCUGCGAAUUCUGCUGUAUAUCUC: the self-cleavage came out at 0.09.

Consider UAACAGGGAGCCGCAGCAGAAGCGUUCACGUCGCAGCCCCUGUCAGAUGCUGGUGAAUCUGCGAAUUCUGCUGUAUAUCUC, for which the self-cleavage was determined as 0.39.

With UAACAGGUGGCCACAGCAGAAGCGUUCACGUCGCAGCCCCAGUCAGAUUCUGGUGAAUCUGCGAAUUCUGCUGAAUAUCUC, the self-cleavage was 0.16.

In the case of UAACAGGGAGCCGCGGCAGAAGCGUUCACGUCGCAGCCCCUCUCAGAUUCUGGUAAAUCUGCAAAUUCUGCUGUAUAUCCC, the self-cleavage came to 0.06.

As for UAACAGGUGGCCACAGCAGAAGCGUUCACGUCGCAGCCCCCGUCUGAUUCUGGUGAAUCUGCGAUUUCUGCUGUAUAUCUC, the self-cleavage was 0.38.

For UAACAGGGAGCCACAGCGGAGGCGUUCACGUCGCAGCCCCAGUCAGAUUCUGGUGAAUCUGCUAAUUCUGCUGUAUAUCUC, the self-cleavage was found to be 0.07.

For UAACAGGGAGCCACAGCGGAAGCGUUCACGUCGCAGCCCCUGUCAGAUCCUGGCGAACCUGCGAAUUCUGCUGUAUAUCUC, the self-cleavage is 0.07.

Consider UAACAGGGAGCCACAGCGGAAGCGUUCACGUCGCAGCCCCUGCCAGAUCCUGGUGAAUCAGCGAAUUCUGCUGUAUAUCUC, for which the self-cleavage amounted to 0.05.

Regarding UAACAGGGAGCCACAGCGGAAGCGUUCACGUCGCAGCCCCUGUCAGAUUCUGGUGAAUCUGCGUAUUCUGCUGCUUAUCUC, the self-cleavage is 0.17.
